{"source": "the supplement of paper PMC10126150", "note": "Sequences with one replicate were seen in a single cluster, so their values are uncertain.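 Further: ATP exposure 15 min at 22 °C before imaging.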"}
{"test_system": "ATP", "experiment": "switch fluorescence ratio, 500 uM ATP over buffer (Cy3 cluster intensity, sum of 5 cycles each) (fold (ratio)); higher = stronger signal-on switching upon ATP binding; sequences stand for … in TCGTCGGCAGCGTCAGATGTGTATAAGAGACAGTTTTTTTTTTTTTTTTTTTTTTTTT…TC", "details": "aptamer strand: ATP DNA aptamer (quencher-CACCTGGGGGAGTATTGCGGAGGAAGG + anchor), 100 nM annealed; ATP concentration: 500 uM; one replicate", "in_short": "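Clusters with intensities outside 100-1000 RFU were excluded. The remaining Cy3-labelled switching-strand clusters on a modified Illumina MiSeq flow-cell had been annealed to 100 nM quencher-labelled ATP aptamer and imaged in selection buffer, then after 15 min with 500 uM ATP at 22 °C, for five cycles separated by NaOH stripping and re-annealing. The fluorescence ratio, averaged per switch-domain sequence, is each cluster's summed target-cycle Cy3 intensity over its summed buffer-cycle Cy3 intensity.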"}
{"sequence": "GGACTCTCGT", "switch fluorescence ratio": 1.02}
{"sequence": "GGACTGGACA", "switch fluorescence ratio": 1}
{"sequence": "GGACTGGTAC", "switch fluorescence ratio": 1.09}
{"sequence": "GGACTGTACG", "switch fluorescence ratio": 1.18}
{"sequence": "GGACTGTTGC", "switch fluorescence ratio": 1.03}
{"sequence": "GGAGATCCG", "switch fluorescence ratio": 0.947}
{"sequence": "GGAGCCTCAC", "switch fluorescence ratio": 1.16}
{"sequence": "GGAGCGACGG", "switch fluorescence ratio": 1.05}
{"sequence": "GGAGCGGATA", "switch fluorescence ratio": 1.13}
{"sequence": "GGAGCGGGCG", "switch fluorescence ratio": 0.879}
{"sequence": "GGAGCTCAAA", "switch fluorescence ratio": 1.03}
{"sequence": "GGAGCTCCCC", "switch fluorescence ratio": 0.935}
{"sequence": "GGAGCTCTTT", "switch fluorescence ratio": 1.02}
{"sequence": "GGAGGATGTA", "switch fluorescence ratio": 0.972}
{"sequence": "GGAGGCAATA", "switch fluorescence ratio": 1.34}
{"sequence": "GGAGGCCTGG", "switch fluorescence ratio": 1.04}
{"sequence": "GGAGGCGCTG", "switch fluorescence ratio": 0.988}
{"sequence": "GGAGGCTATA", "switch fluorescence ratio": 1.07}
{"sequence": "GGAGGCTGTT", "switch fluorescence ratio": 1.03}
{"sequence": "GGAGGGAATC", "switch fluorescence ratio": 1.01}
{"sequence": "GGAGGGACGA", "switch fluorescence ratio": 0.985}
{"sequence": "GGAGGGATTA", "switch fluorescence ratio": 0.98}
{"sequence": "GGAGGGTACG", "switch fluorescence ratio": 1.07}
{"sequence": "GGAGGTCGCA", "switch fluorescence ratio": 1.02}
{"sequence": "GGAGGTGAAT", "switch fluorescence ratio": 1.05}
{"sequence": "GGAGGTTGTT", "switch fluorescence ratio": 0.968}
{"sequence": "GGAGTGTAAT", "switch fluorescence ratio": 1}
{"sequence": "GGAGTGTCTC", "switch fluorescence ratio": 0.97}
{"sequence": "GGAGTTAATG", "switch fluorescence ratio": 0.987}
{"sequence": "GGAGTTCAGA", "switch fluorescence ratio": 0.993}
{"sequence": "GGATAACAG", "switch fluorescence ratio": 0.986}
{"sequence": "GGATAAGAGG", "switch fluorescence ratio": 1}
{"sequence": "GGATACCTCC", "switch fluorescence ratio": 1.07}
{"sequence": "GGATAGCACG", "switch fluorescence ratio": 1.01}
{"sequence": "GGATATATCG", "switch fluorescence ratio": 0.987}
{"sequence": "GGATATGGGC", "switch fluorescence ratio": 1.03}
{"sequence": "GGATATTCGT", "switch fluorescence ratio": 0.999}
{"sequence": "GGATCACTGC", "switch fluorescence ratio": 1.01}
{"sequence": "GGATCCACGT", "switch fluorescence ratio": 1.05}
{"sequence": "GGATCCTACA", "switch fluorescence ratio": 0.984}
{"sequence": "GGATCGAAGC", "switch fluorescence ratio": 1.04}
{"sequence": "GGATCGGCCT", "switch fluorescence ratio": 1.01}
{"sequence": "GGATCGTGGA", "switch fluorescence ratio": 1.01}
{"sequence": "GGATCTTGTT", "switch fluorescence ratio": 0.962}
{"sequence": "GGATGATTGC", "switch fluorescence ratio": 0.939}
{"sequence": "GGATGGCAGA", "switch fluorescence ratio": 1.05}
{"sequence": "GGATGGTATC", "switch fluorescence ratio": 0.967}
{"sequence": "GGATTATCGT", "switch fluorescence ratio": 1.03}
{"sequence": "GGATTATGAC", "switch fluorescence ratio": 0.973}
{"sequence": "GGATTCCTTT", "switch fluorescence ratio": 0.994}
{"sequence": "GGATTCGGCC", "switch fluorescence ratio": 0.972}
{"sequence": "GGATTGGCAT", "switch fluorescence ratio": 0.968}
{"sequence": "GGATTGGGAA", "switch fluorescence ratio": 0.994}
{"sequence": "GGATTGGTG", "switch fluorescence ratio": 0.98}
{"sequence": "GGATTTAAGG", "switch fluorescence ratio": 0.973}
{"sequence": "GGATTTGGGA", "switch fluorescence ratio": 1.03}
{"sequence": "GGATTTTAGT", "switch fluorescence ratio": 0.96}
{"sequence": "GGCAAAAATA", "switch fluorescence ratio": 0.994}
{"sequence": "GGCAAAGAAT", "switch fluorescence ratio": 0.948}
{"sequence": "GGCAATGG", "switch fluorescence ratio": 1.87}
{"sequence": "GGCACAGGAA", "switch fluorescence ratio": 1.05}
{"sequence": "GGCACATAGG", "switch fluorescence ratio": 1.39}
{"sequence": "GGCACATCGT", "switch fluorescence ratio": 1.02}
{"sequence": "GGCACCTAAG", "switch fluorescence ratio": 1.02}
{"sequence": "GGCACGCAAT", "switch fluorescence ratio": 5.55}
{"sequence": "GGCACGGCCA", "switch fluorescence ratio": 1.01}
{"sequence": "GGCACGTCTG", "switch fluorescence ratio": 1.02}
{"sequence": "GGCACGTTTT", "switch fluorescence ratio": 1.01}
{"sequence": "GGCACTGCCG", "switch fluorescence ratio": 0.908}
{"sequence": "GGCACTGGGT", "switch fluorescence ratio": 0.991}
{"sequence": "GGCACTTAGG", "switch fluorescence ratio": 1.03}
{"sequence": "GGCAGAAGCT", "switch fluorescence ratio": 1.07}
{"sequence": "GGCAGAAGTT", "switch fluorescence ratio": 0.962}
{"sequence": "GGCAGAGACT", "switch fluorescence ratio": 1.01}
{"sequence": "GGCAGATCCT", "switch fluorescence ratio": 0.988}
{"sequence": "GGCAGGCAAA", "switch fluorescence ratio": 1.03}
{"sequence": "GGCAGGGAAT", "switch fluorescence ratio": 0.984}
{"sequence": "GGCAGGGACA", "switch fluorescence ratio": 1.03}
{"sequence": "GGCATACATG", "switch fluorescence ratio": 1.02}
{"sequence": "GGCATACTTC", "switch fluorescence ratio": 1.06}
{"sequence": "GGCATAGCTG", "switch fluorescence ratio": 0.995}
{"sequence": "GGCATCCGTG", "switch fluorescence ratio": 1.02}
{"sequence": "GGCATCTGTT", "switch fluorescence ratio": 0.988}
{"sequence": "GGCATTTGGG", "switch fluorescence ratio": 0.991}
{"sequence": "GGCATTTTG", "switch fluorescence ratio": 0.998}
{"sequence": "GGCCAAACCG", "switch fluorescence ratio": 1.02}
{"sequence": "GGCCAACGTT", "switch fluorescence ratio": 1.01}
{"sequence": "GGCCAATGTT", "switch fluorescence ratio": 0.998}
{"sequence": "GGCCAGTTTT", "switch fluorescence ratio": 1.02}
{"sequence": "GGCCCAAAAG", "switch fluorescence ratio": 0.973}
{"sequence": "GGCCCACTGT", "switch fluorescence ratio": 1.02}
{"sequence": "GGCCCAGCCA", "switch fluorescence ratio": 0.995}
{"sequence": "GGCCCCCGAC", "switch fluorescence ratio": 1.03}
{"sequence": "GGCCCCTAGC", "switch fluorescence ratio": 0.96}
{"sequence": "GGCCCGGT", "switch fluorescence ratio": 1.01}
{"sequence": "GGCCGAAAGG", "switch fluorescence ratio": 1.01}
{"sequence": "GGCCGAACT", "switch fluorescence ratio": 1.14}
{"sequence": "GGCCGGCACC", "switch fluorescence ratio": 0.947}
{"sequence": "GGCCTAAGAC", "switch fluorescence ratio": 0.996}
{"sequence": "GGCCTACGTT", "switch fluorescence ratio": 0.961}
